B1: PhoQ; a variant is named by its letters at X, in order, P23837 (parent)
chain: MKKLLRLFFPLSLRVRFLLATAAVVLVLSLAYGMVALIGYSVSFDKTTFRLLRGESNLFYTLAKWENNKLHVELPENIDKQSPTMTLIYDENGQLLWAQRDVPWLMKMIQPDWLKSNGFHEIEADVNDTSLLLSGDHSIQQQLQEVREDDDDAEMTHSVAVNVYPATSRMPKLTIVVVDTIPVELKSSYMVWSWFIYVLSANLLLVIPLLWVAAWWSLRPIEALAKEVRELEEHNRELLNPATTRELTSLVRNLNRLLKSERERYDKYRTTLTDLTHSLKTPLXXLQXXLRSLRSEKMSVSDAEPVMLEQISRISQQIGYYLHRASMRGGTLLSRELHPVAPLLDNLTSALNKVYQRKGVNISLDISPEISFVGEQNDFVEVMGNVLDNACKYCLEFVEISARQTDEHLYIVVEDDGPGIPLSKREVIFDRGQRVDTLRPGQGVGLAVAREITEQYEGKIVAGESMLGGARMEVIFGRQHSAPKDE

This is one part of the list.

The experiment covers variants of B1. Put plainly: enrichment ratio after two sorts for PhoP signalling (ratio (wild type AVST 3.29)); higher = more functional. Conditions: with PhoP (E. coli).
Regarding KYNP, the enrichment ratio is at most 0.25.
The same measure for NRKP: at most 0.25; for PIHS: at most 0.25; for LPKM: at most 0.25.
As for RKKL, the enrichment ratio was at most 0.25.
With NGFW, the enrichment ratio was at most 0.25.
The same measure for RIRF: at most 0.25; for QMVK: at most 0.25; for RYSK: at most 0.25.
The same measure for ILYA: at most 0.25; for PFFA: at most 0.25.
On to IFQY, for which the enrichment ratio is at most 0.25.
Regarding YAQV, the enrichment ratio was at most 0.25.
The figure for VYTA is at most 0.25; for HVRT it is at most 0.25; for WGYG it is at most 0.25.
For TFTK, the enrichment ratio is at most 0.25.
The figure for GRYY is at most 0.25; for PLSW it is at most 0.25.
For WLSM, the enrichment ratio is at most 0.25.
The figure for EGGW is at most 0.25; for WCVR it is at most 0.25.
As for FKMH, the enrichment ratio is at most 0.25.
The same measure for YETN: at most 0.25; for MPMV: at most 0.25; for HSLT: at most 0.25.
The same measure for FIMR: at most 0.25; for KYEK: at most 0.25.
The figure for KNCA is at most 0.25; for LMGF it is at most 0.25.
With ASLN, the enrichment ratio came to 9.05.
As to MYKE, the enrichment ratio was at most 0.25.
The figure for YRQI is at most 0.25; for LLTH it is at most 0.25; for YDYW it is at most 0.25.
The same measure for RRGF: at most 0.25; for IHDN: at most 0.25.
With AANM, the enrichment ratio is at most 0.25.
The same measure for YPYI: at most 0.25.
The figure for RYFQ is at most 0.25; for RILL it is at most 0.25.
The same measure for QNGR: at most 0.25; for HHDP: at most 0.25; for TRLD: 5.48.
As for FFFN, the enrichment ratio is at most 0.25.
The same measure for PMTD: at most 0.25; for VKDC: at most 0.25.
The figure for EIGK is at most 0.25; for SHPY it is at most 0.25.
In the case of RLTH, the enrichment ratio was at most 0.25.
The figure for GKYK is at most 0.25.
The figure for QFKE is at most 0.25; for MAFR it is at most 0.25.
The same measure for GIWT: at most 0.25; for RSKW: at most 0.25.
As to WGDH, the enrichment ratio was at most 0.25.
The figure for LYQY is at most 0.25; for KMPP it is at most 0.25.
Take TDLN: the enrichment ratio was determined as 14.9.
Consider YRQG, for which the enrichment ratio was at most 0.25.
Turning to FNIE, the enrichment ratio is at most 0.25.
The same measure for FHGE: at most 0.25.
For VIMP, the enrichment ratio was at most 0.25.
As for WEVQ, the enrichment ratio was at most 0.25.
The figure for WIRT is at most 0.25; for DMCA it is at most 0.25; for VHQM it is at most 0.25.
The same measure for WPMT: at most 0.25; for WTDR: at most 0.25.
The same measure for LGEN: at most 0.25; for DQFL: at most 0.25; for VITA: at most 0.25.
For the variant PQQL, the enrichment ratio is 1.38.
The figure for NLII is at most 0.25; for GEHT it is at most 0.25; for NVCI it is at most 0.25.
The same measure for WVRK: at most 0.25; for RKLG: at most 0.25; for QNQG: at most 0.25.
The figure for GRRK is at most 0.25; for HMNG it is at most 0.25; for THHA it is at most 0.25.
For the variant KPGI, the enrichment ratio was at most 0.25.
Turning to TRIV, the enrichment ratio was at most 0.25.
The same measure for LRNA: at most 0.25; for HPIL: at most 0.25; for PVGI: at most 0.25.
The same measure for QYMH: at most 0.25.
For the variant HDTF, the enrichment ratio is at most 0.25.
The same measure for GLSR: at most 0.25; for KMKC: at most 0.25; for QFIW: at most 0.25.
The figure for IAYA is at most 0.25; for HWVD it is at most 0.25; for NQAE it is at most 0.25.
The figure for TCRI is 8.19; for RPVW it is at most 0.25.
As for TYLF, the enrichment ratio was at most 0.25.
As for LLSP, the enrichment ratio was at most 0.25.
The same measure for SRMC: at most 0.25; for RKLE: at most 0.25; for AIWC: at most 0.25.
Take WRWF: the enrichment ratio was at most 0.25.
The same measure for WSLQ: 3.01.
The figure for FCCH is at most 0.25.
The same measure for GMQD: at most 0.25; for DSDL: at most 0.25; for QISW: at most 0.25.
RDMG: the enrichment ratio is at most 0.25.
The figure for MRNH is at most 0.25; for LGFI it is 9.12.
As to LGGH, the enrichment ratio is at most 0.25.
With DAPI, the enrichment ratio was at most 0.25.
The figure for AMYH is at most 0.25.
Turning to RHCK, the enrichment ratio is at most 0.25.
The same measure for IIGA: at most 0.25.
The same measure for GFQS: at most 0.25; for LCDW: at most 0.25.
SQYN: the enrichment ratio was at most 0.25.
The figure for IECF is at most 0.25; for ESLW it is at most 0.25; for RTSF it is at most 0.25.
The same measure for KRNI: at most 0.25; for ASHP: at most 0.25.
The same measure for RRVP: at most 0.25; for PRMR: at most 0.25.
Regarding SVMP, the enrichment ratio is at most 0.25.
The figure for RMDF is at most 0.25; for DKID it is at most 0.25.
The same measure for RTDS: at most 0.25; for ITYV: at most 0.25.
The figure for VMIG is at most 0.25; for TCWH it is at most 0.25; for ICRL it is at most 0.25.
Regarding EKHN, the enrichment ratio was at most 0.25.
For the variant RPWP, the enrichment ratio is at most 0.25.
The same measure for WNFP: at most 0.25; for WASI: at most 0.25.
The same measure for LKIA: at most 0.25.
The same measure for DLND: at most 0.25; for QLTH: at most 0.25.
GVSW: the enrichment ratio is at most 0.25.
Take FDTP: the enrichment ratio is at most 0.25.
The same measure for LIFQ: at most 0.25.
The figure for PWNP is at most 0.25; for VLCP it is at most 0.25; for NMGA it is at most 0.25.
The same measure for RTYV: at most 0.25.
For GQQN, the enrichment ratio is at most 0.25.
For the variant WPPR, the enrichment ratio was at most 0.25.
The same measure for TNDG: at most 0.25; for YWQC: at most 0.25.
The figure for AHDK is at most 0.25.
